The source of these data is publication PMC12136788.

The other results are listed elsewhere or left out.

First the molecules themselves.
B1: 17831384_17831504_2669_CDS_ENSMUSG00000037369_ENSMUST00000044484|mouse|control|control (ssRNA)
RNA: GGGAGUUCUACAGUCCGACGAUCAUCUCCAUGGCUAGGACUGCAAACAGCAUCUGCCAUCACCUGAUGGACAUGAUUAGGAAGUCCCUCAACACUGGCAGUGCUGUUAGGUGUCUCUCCAGUUUGCCUGCUUGUUUCAGGCACCAACAGAGGAUUGAGCAUCA
B2: 181319571_181319691_2535_CDS_ENSMUSG00000000823_ENSMUST00000128553|mouse|control|control (ssRNA)
RNA: GGGAGUUCUACAGUCCGACGAUCGCUCCGGGACCCCCUGUCUCUGCCUCCUGGGGGCCAGUCAUCCCUGUUAGGGGGGAGCUUAGAUGCUGGCUCCUCGGAGGAUCGUUCCUUGGGUUUGCGGCCCCGCUUCUUUCCUCCUGACAACAGAGGAUUGAGCAUCA
B3: chr9:53392976:53392977:-_ENSMUSG00000032047_ENSMUST00000034547|mus_hu|FALSE|FALSE (ssRNA)
RNA: GGGAGUUCUACAGUCCGACGAUCUUUCAAUCCCACAUCUUUAAGAACCAUAGAUGCAGCAUAUACAGGAGCAAUUGGAAAAUCAAUAGGUUCUACAGCAGCGUCAGCAAAUGCUACUAUUCUUGCCAGUGGUGUAACAUUGAGCAACAGAGGAUUGAGCAUCA
B4: chr19:16212804:16212805:+_ENSG00000167460_ENST00000300933|hu_mus|hu_hu_hu_mus_False|28_88 (ssRNA)
RNA: GGGAGUUCUACAGUCCGACGAUCAACAAUUCUGGAGUGAAGGAAAGCAUCAAGGAUGAACAGCAUUAAAGCUCAGUCAGAAGGCACAUGGGCAACAAUGAUCACCCCCCAAGCAUUGCUUGGAAUGCUUAAAGACAAUCUGUUCAACAGAGGAUUGAGCAUCA
B5: chr13:55314840:55314841:+_ENSMUSG00000021488_ENSMUST00000099490|mus_mus|motif|central (ssRNA)
RNA: GGGAGUUCUACAGUCCGACGAUCAUCACUUUUUGCAGGGUCUUGAAAGGAUUCUGAUCCAUCAGCAGACCCACUUAAAUAUUCGGCAUUGAUCAUGGAGGCCAAAUCCUGUAGUCUCCGCAGUGGAAUGUAACAAGAUGGAGACAACAGAGGAUUGAGCAUCA
B6: 17602526_17605274_3153_CDS_ENSG00000125844_ENST00000246043|human|control|control (ssRNA)
RNA: GGGAGUUCUACAGUCCGACGAUCGAGCAGAGCCAGCAGGGCCUCCAUGGUCUGCGCCUCAAUCAGACAGAGCUGCUUCUCCGAUUCCUCCUUGGCCUGGGUCAGGGAGAGCAGCUUCUCCUUGCAGGCCUGCUCGGCCGUGGCCAACAGAGGAUUGAGCAUCA

The experiment deals with T1, UNK ZnF1-3 (human, UniProt Q9C0B0 31-174).
T1 sequence: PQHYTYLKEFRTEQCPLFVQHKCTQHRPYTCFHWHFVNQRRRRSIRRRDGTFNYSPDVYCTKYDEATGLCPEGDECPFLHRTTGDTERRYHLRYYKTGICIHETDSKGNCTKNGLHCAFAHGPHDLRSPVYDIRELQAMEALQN
The experiment can be described thus: nsRBNS (natural sequence RNA bind-n-seq); RBNS binding buffer (assumed for nsRBNS): 25 mM Tris pH 7.5, 150 mM KCl, 3 mM MgCl2, 0.01% Triton X-100, 500 ug/ml BSA, 20 U/ml SUPERase-In, 4 C; UNK is unkempt and MSI1 is Musashi-1; names of the RNAs are library labels; protein concentration not given here; high values mean tight binding.
B1: the binding signal is 0.418 enrichment R.
For B2, the binding signal is 0.7 enrichment R.
For B3, the binding signal turned out to be 1.41 enrichment R.
The figure for B4 is 1.53 enrichment R; for B5 it is 0.744 enrichment R; for B6 it is 0.533 enrichment R.
